# Assay results as given in patent US11117947B2, “Double-acylated GLP-1 derivatives” (Novo Nordisk A/S, priority 2011, dated 2021).
# At least one structure is not confirmed: it was looked up by name or label, or the drawing left a doubt. Numbered stars: 1 amine (or outer) side, 2 acyl side, 3 side chain; on linkers, the order of the positions; unused ones are H or OH. Side chains are listed from the residue outwards. Peptide text beside a SMILES is read from it. * marks the point of attachment. Dodecanoyl(12-OPh(4-COOH)) = O=C(O)c1ccc(OCCCCCCCCCCCC(=O)*)cc1; Decanoyl(10-(4-HOOC-PhO)) = O=C(O)c1ccc(OCCCCCCCCCC(=O)*)cc1; d(γGlu) = O=C(O)[C@@H](CCC(=O)[*:2])N[*:1]; γGlu = O=C(O)[C@H](CCC(=O)[*:2])N[*:1]; AEEA = NCCOCCOCC(=O)O
# Biological target: T1, human GLP-1 receptor (Homo sapiens, UniProt P43220)
# T1 construct: expressed in transfected cells; membranes
# T1 sequence (P43220 24-463): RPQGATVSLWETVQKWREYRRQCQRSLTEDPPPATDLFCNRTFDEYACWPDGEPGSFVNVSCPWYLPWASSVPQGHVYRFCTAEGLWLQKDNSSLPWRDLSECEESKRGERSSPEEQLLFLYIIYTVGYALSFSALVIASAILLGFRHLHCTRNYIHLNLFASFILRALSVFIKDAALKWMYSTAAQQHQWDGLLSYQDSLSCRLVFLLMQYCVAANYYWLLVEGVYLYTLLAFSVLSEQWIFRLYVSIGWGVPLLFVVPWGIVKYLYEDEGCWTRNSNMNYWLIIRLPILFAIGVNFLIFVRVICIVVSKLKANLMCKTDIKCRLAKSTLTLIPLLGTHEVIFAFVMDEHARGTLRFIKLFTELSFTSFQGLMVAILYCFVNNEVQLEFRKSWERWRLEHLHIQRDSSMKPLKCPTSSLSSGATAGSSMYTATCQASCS
# Assay: GLP-1 receptor binding: displacement of 125I-GLP-1 (SPA) at low and high albumin
# Conditions: 2.0% HSA vs 0.001% HSA
# Protocol: The purpose of this experiment is to investigate the binding to the GLP-1 receptor of the GLP-1 derivatives, and how the binding is potentially influenced by the presence of albumin. This is done in an in vitro experiment as described below.
# In order to test the binding of the derivatives to albumin, the assay was performed with a low concentration of albumin (0.001%—corresponding to the residual amount thereof in the tracer), as well as with a high concentration of albumin (2.0% added). A shift in the binding affinity, IC50, is an indication that the peptide in question binds to albumin, and thereby a prediction of a potential protracted pharmacokinetic profile of the peptide in question in animal models.
# Species (in vitro): Hamster
# Biological End Point: Receptor Binding
# A stable transfected cell line and a high expressing clone were selected for screening. The cells were grown at 5% CO2 in DMEM, 10% FCS, 1% Pen/Strep (Penicillin/Streptomycin) and 1.0 mg/ml of the selection marker G418.
# The cells (approx. 80% confluence) were washed twice in PBS and harvested with Versene (aqueous solution of the tetrasodium salt of ethylenediaminetetraacetic acid), following which they were separated by centrifugation at 1000 rpm for 5 min. The cells/cell pellet must be kept on ice to the extent possible in the subsequent steps. The cell pellet was homogenised with Ultrathurrax for 20-30 seconds in a suitable amount of Buffer 1 (depending on the amount of cells, but e.g. 10 ml). The homogenate was centrifuged at 20000 rpm for 15 minutes. The pellet was resuspended (homogenised) in 10 ml Buffer 2 and re-centrifuged. This step was repeated once more. The resulting pellet was resuspended in Buffer 2, and the protein concentration was determined. The membranes were stored at minus 80° C.
# Buffer 1: 20 mM Na-HEPES+10 mM EDTA, pH 7.4
# Buffer 2: 20 mM Na-HEPES+0.1 mM EDTA, pH 7.4
# Test compounds, membranes, SPA-particles and [^125I]-GLP-1(7-36)NH2 were diluted in assay buffer. 50 ul (micro liter) HSA (“high albumin” experiment containing 2% HSA), or buffer (“low albumin” experiment containing 0.001% HSA), was added to Optiplate, and 25 ul of test compounds were added. 5-10 ug membrane protein/sample was added (50 ul) corresponding to 0.1-0.2 mg protein/ml (to be preferably optimised for each membrane preparation). SPA-particles (Wheatgerm agglutinin SPA beads, Perkin Elmer, #RPNQ0001) were added in an amount of 0.5 mg/well (50 ul). The incubation was started with [^125I]-GLP-1]-(7-36)NH2 (final concentration 0.06 nM corresponding to 49.880 DPM, 25 ul). The plates were sealed with PlateSealer and incubated for 120 minutes at 30° C. while shaking. The plates were centrifuged (1500 rpm, 10 min) and counted in Topcounter.
row,SMILES,Ratio [(IC50/nM) high HSA]/[(IC50/nM) low HSA]
1,"CC[C@H](C)[C@H](NC(=O)[C@H](Cc1ccccc1)NC(=O)[C@H](CCCCNC(=O)COCCOCCNC(=O)COCCOCCNC(=O)CC[C@H](NC(=O)CCCCCCCCCOc1ccc(C(=O)O)cc1)C(=O)O)NC(=O)[C@H](CCCNC(=N)N)NC(=O)[C@H](C)NC(=O)[C@H](CCCCNC(=O)COCCOCCNC(=O)COCCOCCNC(=O)CC[C@H](NC(=O)CCCCCCCCCOc1ccc(C(=O)O)cc1)C(=O)O)NC(=O)[C@H](CCC(N)=O)NC(=O)[C@H](CCC(=O)O)NC(=O)[C@H](CCC(=O)O)NC(=O)[C@H](CC(C)C)NC(=O)[C@H](Cc1ccc(O)cc1)NC(=O)[C@H](CO)NC(=O)[C@H](CO)NC(=O)[C@@H](NC(=O)[C@H](CC(=O)O)NC(=O)[C@H](CO)NC(=O)[C@@H](NC(=O)[C@H](Cc1ccccc1)NC(=O)[C@@H](NC(=O)CNC(=O)[C@H](CCC(=O)O)NC(=O)[C@H](C)NC(=O)[C@@H](N)Cc1c[nH]cn1)[C@@H](C)O)[C@@H](C)O)C(C)C)C(=O)N[C@@H](C)C(=O)N[C@@H](Cc1c[nH]cn1)C(=O)N[C@@H](CC(C)C)C(=O)N[C@H](C(=O)NCC(=O)O)C(C)C [Example 25, N^ε24-[2-[2-[2-[[2-[2-[2-[[(4S)-4-carboxy-4-[10-(4-carboxyphenoxy)decanoylamino]butanoyl]amino]ethoxy]ethoxy]acetyl]amino]ethoxy]ethoxy]acetyl], N^ε27-[2-[2-[2-[[2-[2-[2-[[(4S)-4-carboxy-4-[10-(4-carboxyphenoxy)decanoylamino]butanoyl]amino]ethoxy]ethoxy]acetyl]amino]ethoxy]ethoxy]acetyl]-[Glu^22,Lys^24,Arg^26,Lys^27,His^31,Gly^34]-GLP-1-(7-34)-peptide] (H-HAEGTFTSDVSSYLEEQK([AEEA-AEEA-γGlu-Decanoyl(10-(4-HOOC-PhO))])ARK([AEEA-AEEA-γGlu-Decanoyl(10-(4-HOOC-PhO))])FIAHLVG-OH; N-terminus and C-terminus assumed)",3.5
2,CC[C@H](C)[C@H](NC(=O)[C@H](Cc1ccccc1)NC(=O)[C@H](CCCCNC(=O)CC[C@H](NC(=O)COCCOCCNC(=O)COCCOCCNC(=O)CC[C@@H](NC(=O)CCCCCCCCCOc1ccc(C(=O)O)cc1)C(=O)O)C(=O)O)NC(=O)[C@H](CCCNC(=N)N)NC(=O)[C@@H](NC(=O)[C@H](C)NC(=O)[C@H](CCC(N)=O)NC(=O)CNC(=O)[C@H](CCC(=O)O)NC(=O)[C@H](CC(C)C)NC(=O)[C@H](Cc1ccc(O)cc1)NC(=O)[C@H](CO)NC(=O)[C@H](CO)NC(=O)[C@@H](NC(=O)[C@H](CC(=O)O)NC(=O)[C@H](CO)NC(=O)[C@@H](NC(=O)[C@H](Cc1ccccc1)NC(=O)[C@@H](NC(=O)CNC(=O)[C@H](CCC(=O)O)NC(=O)[C@H](C)NC(=O)[C@@H](N)Cc1c[nH]cn1)[C@@H](C)O)[C@@H](C)O)C(C)C)C(C)C)C(=O)N[C@@H](C)C(=O)N[C@@H](Cc1c[nH]c2ccccc12)C(=O)N[C@@H](CC(C)C)C(=O)N[C@H](C(=O)N[C@@H](CCC(N)=O)C(=O)NCC(=O)N[C@@H](CCCCNC(=O)CC[C@H](NC(=O)COCCOCCNC(=O)COCCOCCNC(=O)CC[C@@H](NC(=O)CCCCCCCCCOc1ccc(C(=O)O)cc1)C(=O)O)C(=O)O)C(=O)NCC(=O)O)C(C)C [Example 26] (H-HAEGTFTSDVSSYLEGQAVRK([γGlu-AEEA-AEEA-d(γGlu)-Decanoyl(10-(4-HOOC-PhO))])FIAWLVQGK([γGlu-AEEA-AEEA-d(γGlu)-Decanoyl(10-(4-HOOC-PhO))])G-OH; N-terminus and C-terminus assumed),143
3,"CC[C@H](C)[C@H](NC(=O)[C@H](Cc1ccccc1)NC(=O)[C@H](CCCCNC(=O)COCCOCCNC(=O)COCCOCCNC(=O)CC[C@H](NC(=O)CCCCCCCCCOc1ccc(C(=O)O)cc1)C(=O)O)NC(=O)[C@H](CCCNC(=N)N)NC(=O)[C@@H](NC(=O)[C@H](CCCCNC(=O)COCCOCCNC(=O)COCCOCCNC(=O)CC[C@H](NC(=O)CCCCCCCCCOc1ccc(C(=O)O)cc1)C(=O)O)NC(=O)[C@H](CCC(N)=O)NC(=O)[C@H](CCC(=O)O)NC(=O)[C@H](CCC(=O)O)NC(=O)[C@H](CC(C)C)NC(=O)[C@H](Cc1ccc(O)cc1)NC(=O)[C@H](CO)NC(=O)[C@H](CO)NC(=O)[C@@H](NC(=O)[C@H](CC(=O)O)NC(=O)[C@H](CO)NC(=O)[C@@H](NC(=O)[C@H](Cc1ccccc1)NC(=O)[C@@H](NC(=O)CNC(=O)[C@H](CCC(=O)O)NC(=O)[C@H](C)NC(=O)[C@@H](N)Cc1c[nH]cn1)[C@@H](C)O)[C@@H](C)O)C(C)C)C(C)C)C(=O)N[C@@H](C)C(=O)N[C@@H](Cc1c[nH]c2ccccc12)C(=O)N[C@@H](CC(C)C)C(=O)N[C@H](C(=O)N[C@@H](CCCNC(=N)N)C(=O)NCC(=O)N[C@@H](CCCNC(=N)N)C(=O)NCC(=O)O)C(C)C [Example 28, N^ε24-[2-[2-[2-[[2-[2-[2-[[(4S)-4-carboxy-4-[10-(4-carboxyphenoxy)decanoylamino]butanoyl]amino]ethoxy]ethoxy]acetyl]amino]ethoxy]ethoxy]acetyl], N^ε27-[2-[2-[2-[[2-[2-[2-[[(4S)-4-carboxy-4-[10-(4-carboxyphenoxy)decanoylamino]butanoyl]amino]ethoxy]ethoxy]acetyl]amino]ethoxy]ethoxy]acetyl]-[Glu^22,Lys^24,Val^25,Arg^26,Lys^27,Arg^34]-GLP-1-(7-37)-peptide] (H-HAEGTFTSDVSSYLEEQK([AEEA-AEEA-γGlu-Decanoyl(10-(4-HOOC-PhO))])VRK([AEEA-AEEA-γGlu-Decanoyl(10-(4-HOOC-PhO))])FIAWLVRGRG-OH; N-terminus and C-terminus assumed)",144
4,"CC[C@H](C)[C@H](NC(=O)[C@H](Cc1ccccc1)NC(=O)[C@H](CCCCNC(=O)COCCOCCNC(=O)COCCOCCNC(=O)CC[C@H](NC(=O)CCCCCCCCCCCOc1ccc(C(=O)O)cc1)C(=O)O)NC(=O)[C@H](CCCNC(=N)N)NC(=O)[C@H](C)NC(=O)[C@H](C)NC(=O)[C@H](CCC(N)=O)NC(=O)[C@H](CCC(=O)O)NC(=O)[C@H](CCC(=O)O)NC(=O)[C@H](CC(C)C)NC(=O)[C@H](Cc1ccc(O)cc1)NC(=O)[C@H](CO)NC(=O)[C@H](CO)NC(=O)[C@@H](NC(=O)[C@H](CC(=O)O)NC(=O)[C@H](CO)NC(=O)[C@@H](NC(=O)[C@H](Cc1ccccc1)NC(=O)[C@@H](NC(=O)CNC(=O)[C@H](CCC(=O)O)NC(=O)[C@H](C)NC(=O)[C@@H](N)Cc1c[nH]cn1)[C@@H](C)O)[C@@H](C)O)C(C)C)C(=O)N[C@@H](CCC(=O)O)C(=O)N[C@@H](Cc1c[nH]c2ccccc12)C(=O)N[C@@H](CC(C)C)C(=O)N[C@H](C(=O)N[C@@H](CCCNC(=N)N)C(=O)NCC(=O)N[C@@H](CCCCNC(=O)COCCOCCNC(=O)COCCOCCNC(=O)CC[C@H](NC(=O)CCCCCCCCCCCOc1ccc(C(=O)O)cc1)C(=O)O)C(=O)NCC(=O)N[C@@H](CCC(=O)O)C(=O)NCC(=O)O)C(C)C [Example 32, N^ε27-[2-[2-[2-[[2-[2-[2-[[(4S)-4-carboxy-4-[12-(4-carboxyphenoxy)dodecanoylamino]butanoyl]amino]ethoxy]ethoxy]acetyl]amino]ethoxy]ethoxy]acetyl], N^ε36-[2-[2-[2-[[2-[2-[2-[[(4S)-4-carboxy-4-[12-(4-carboxyphenoxy)dodecanoylamino]butanoyl]amino]ethoxy]ethoxy]acetyl]amino]ethoxy]ethoxy]acetyl]-[Glu^22,Arg^26,Lys^27,Glu^30,Arg^34,Lys^36]-GLP-1-(7-37)-peptidyl-Glu-Gly] (H-HAEGTFTSDVSSYLEEQAARK([AEEA-AEEA-γGlu-Dodecanoyl(12-OPh(4-COOH))])FIEWLVRGK([AEEA-AEEA-γGlu-Dodecanoyl(12-OPh(4-COOH))])GEG-OH; N-terminus and C-terminus assumed)",2050
